Each structure is given as a SMILES string. The campaign covered roughly 45,000 compounds. About 65 (0.1%) were called active. Calls come from the whole dose curve; as a rule, active = well fitted activation curve with a large enough effect; inconclusive = small, poorly fitted or top-dose-only effect; inactive = no such curve, though single readings can be large or run the other way. This is one part of the list.

UniProt P54803, sequence (P54803 whole entry, looked up): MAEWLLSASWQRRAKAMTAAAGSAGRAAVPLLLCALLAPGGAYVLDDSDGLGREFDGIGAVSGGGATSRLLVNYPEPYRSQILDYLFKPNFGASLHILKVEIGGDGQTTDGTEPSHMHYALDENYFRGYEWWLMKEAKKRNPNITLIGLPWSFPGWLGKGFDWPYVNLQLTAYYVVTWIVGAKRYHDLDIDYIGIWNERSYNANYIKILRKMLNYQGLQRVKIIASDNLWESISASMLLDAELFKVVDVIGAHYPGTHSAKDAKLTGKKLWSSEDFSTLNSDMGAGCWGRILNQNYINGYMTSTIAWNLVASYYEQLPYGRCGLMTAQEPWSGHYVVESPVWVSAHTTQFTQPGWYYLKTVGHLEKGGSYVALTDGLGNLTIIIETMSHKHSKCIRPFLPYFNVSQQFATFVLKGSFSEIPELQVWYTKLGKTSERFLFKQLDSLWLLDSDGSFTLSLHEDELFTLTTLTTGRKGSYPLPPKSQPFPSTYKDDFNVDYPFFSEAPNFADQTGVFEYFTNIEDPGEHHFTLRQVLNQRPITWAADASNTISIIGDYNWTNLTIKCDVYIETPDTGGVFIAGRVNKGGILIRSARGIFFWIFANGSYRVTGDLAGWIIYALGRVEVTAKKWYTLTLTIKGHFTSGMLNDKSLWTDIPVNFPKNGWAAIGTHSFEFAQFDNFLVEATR

The test addresses Galactocerebrosidase (Homo sapiens) (UniProt P54803). Kind of test: A Novel Cell-Based Assay to Identify Small Molecules for B -Galactocerebrosidase. Note: 0% is about no effect; nearly all actives have a fitted effect of over 65% in size. To be noted: 145M-Twi-hGALC-G270D cells (Twitcher mouse brain line with human GALC G270D), HMU-beta-Gal fluorescence, 48 h; series mostly up to 57.5 µM; activation: at the top concentration. Summed up:
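Fluorogenic HMU-b-Gal hydrolysis (0.1 mM final, pH 5.2 citrate-phosphate with 1 mg/mL sodium taurocholate; carbonate stop buffer) measures mutant GALC activity after compound treatment of live 145M-Twi Twitcher brain cells stably carrying human GALC-G270D, with wild-type GALC line alongside; activation sought.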
In the case of `Cc1ccc(S(=O)(=O)c2nc(S(=O)(=O)c3ccccc3)sc2NCCCOC(C)C)cc1`, the “activation” value was inactive: -28.3%.
In the case of `CCc1ccc(NC(=O)Cn2ccn(-c3ccc(C)c(C)c3)c(=O)c2=O)cc1` it was inactive: -11%; in that of `COc1ccccc1-c1cc(C(=O)NCc2ccccc2)c2c(-c3ccc(C)cc3)[nH]nc2n1`, inactive: -19.7%.
The result for `COc1ccc(NC(=O)c2oc3ccccc3c2NC(=O)Cc2coc3c(C)c(C)ccc23)cc1` reads inactive: -7.72%.
`COc1ccc(-c2nc3cc(NC(=O)CSc4ccc(C)cc4)ccc3o2)cc1`: the “activation” value is inactive: -17.4%.
The result for `Cc1ccc(S(=O)(=O)NCCc2cn3ccsc3n2)c(C)c1` reads inactive: -17.9%; that for `CCN(CC)CCNC(=O)c1c2c(nc3ccccc13)C(=O)N(C1CCCCC1)C2`, inactive: -22.2%; that for `Cc1ccccc1NC(=O)Cn1c(=O)n(Cc2ccc3c(c2)OCO3)c(=O)c2ccccc21`, inactive: -11.7%.
The result for `COc1cccc(NC(=O)Cn2cc(C(=O)c3ccc(C)cc3)c(=O)c3cc(OC)ccc32)c1` reads inactive: -10.5%; that for `CCOc1ccc(NC(=O)/C(C#N)=C\c2ccc(-c3ccc(Cl)cc3)o2)cc1`, inactive: 2.74%.
On to `O=C(CSc1n[nH]c(-c2ccc(F)cc2)n1)NCCc1ccccc1`, for which the “activation” value was inactive: -3.58%.
In the case of `Cc1c(Cl)cccc1NC(=O)CCS(=O)(=O)c1ccc2c(c1)CC(=O)N2C` it was inactive: -9.93%.
In the case of `CC(=O)Nc1ccc(Nc2ncnc3c2cnn3C)cc1` it was inactive: -6.52%; in that of `CCOC(=O)c1c(NC(=O)c2cc(OC)c(OC)c(OC)c2)sc2c1CCCC2`, inactive: -6.51%; in that of `Cc1ccc(C)n1-c1nnc(N2CCCC(C(=O)Nc3ccccc3Br)C2)s1` (stereo unspecified), inactive: -0.551%.
Turning to `COc1ccccc1-c1noc(CCCC(=O)Nc2cccc(C(F)(F)F)c2)n1`, the “activation” value is inactive: -14.1%.
In the case of `CCCN(CCC)C(=O)Cn1c(=O)n(CCCCCC(=O)NCc2ccc3c(c2)OCO3)c(=O)c2sccc21` it was inactive: -11%; in that of `CC1CCN(c2ncnc3c2c(-c2ccccc2)cn3-c2ccc(Br)cc2)CC1`, inactive: -4.05%.
In the case of `CCOc1ccccc1CNC(=O)c1oc2c(c1C)-c1[nH]ncc1CC2` it was inactive: -7.14%.
In the case of `C[n+]1cc2c3c(ccc2c2ccc4cc5c(cc4c21)OCO5)OCO3`, the “activation” value was inactive: -11.5% [at 23.8 µM].
In the case of `COc1ccc(-c2cn3nc(N4CCC(C(=O)Nc5cc(Cl)ccc5C)CC4)sc3n2)cc1` it was inactive: -9.97%; in that of `COc1ccc(NC(=O)CCCn2c(=O)c3cccn3c3cccnc32)cc1Cl`, inactive: -2.47%; in that of `CC(C)(C)c1ccc(OCC(=O)NCC2(N3CCOCC3)CCCCC2)cc1`, inactive: -0.828%.
In the case of `O=C(CN1C(=O)C2(SCC(=O)N2c2cccc(Cl)c2)c2ccccc21)NCc1ccccc1` (stereo unspecified) it was inactive: -22.9%.
For the compound `CCc1cccc(-n2c(=O)c3cccnc3n2CC(=O)NCc2ccc(C)cc2)c1`, the “activation” value was inactive: -13.4%.
In the case of `O=C(CCCCCn1c(=O)c2sccc2n(CC(=O)Nc2cc(C(F)(F)F)ccc2Cl)c1=O)NCc1ccccc1Cl` it was inactive: -14.6%.

The record behind these values is PubChem BioAssay AID1159614 (National Center for Advancing Translational Sciences (NCATS), 2016).
